# According to the supplement of paper PMC4466236:
# Over roughly 33,000 sequences, “E-score (dimensionless, -0.5 to 0.5)” has its median near -0.058; the highest 2% begin near 0.35. Some of the results follow.
# Test system: MvaT
# Assay: PBM 8-mer E-score (mean of HK and ME arrays) (E-score (dimensionless, -0.5 to 0.5)); higher = stronger relative binding preference; most listed sequences are background and not binding sites
# In short: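 Reported values are rank-based E-scores, taken as the mean of two universal arrays and parsed with a custom script. Each 8-mer score falls between -0.5 and 0.5. The arrays, ME and HK, were double-stranded 60-mers with a constant 25-mer primer region and a variable 35-mer region covering all 8-mers. They were probed, by an earlier protocol, with full-length P. aeruginosa MvaT carrying an N-terminal glutathione S-transferase fusion.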
row,Sequence,PBM 8-mer E-score
1,GTTTAACA,0.281
2,GTGCCTTA,-0.086
3,GGGATAAC,0.0674
4,AATAGGCT,0.0938
5,AAGACCCG,-0.189
6,CAAATGCC,-0.147
7,CCGAGCGA,-0.245
8,GTCGGCAA,-0.118
9,CCTGTTGC,-0.185
10,GGGTCTCA,-0.275
11,CAGCGCCC,-0.28
12,CTAATTGC,0.184
13,CGATTTGA,-0.0458
14,GACCCCGA,-0.159
15,GGGTGGAC,-0.172
16,AGCTGCAA,-0.0349
17,ACCGACTA,-0.0207
18,GGGCCTCA,-0.193
19,GGAGCTTA,-0.0736
20,ACTTTATC,0.105
21,GAACTCCC,-0.283
22,AATGCTAT,0.145
23,GGGCTAGA,-0.189
24,AAACCGTC,-0.0545
25,TACTTCGA,0.155

row,Sequence,PBM 8-mer E-score
1,ACGTAAAC,-0.0262
2,TCGAAAAA,0.114
3,AGGCATGA,-0.262
4,ACTCCTCC,-0.244
5,TCTCCTAA,0.0217
6,AAGCCTCA,-0.0957
7,GGTTCCAA,-0.0647
8,ACAACTAG,0.108
9,AACAGCGC,-0.0777
10,ACTGCACG,0.0104
11,CGCTCGTC,-0.278
12,CGCTCCAA,-0.146
13,ACGTTTCC,-0.0974
14,CGTCCGCA,-0.142
15,GATGATTA,0.0955
16,TCGAGGAA,-0.0588
17,CCCCGAGA,-0.341
18,AACACTTG,0.0423
19,GCCTACAA,0.049
20,GTTCTAAA,0.0579
21,CGGAGTTA,0.119
22,AGAGAGGG,-0.195
23,CATGCAGC,-0.269
24,GGAGTGCC,-0.23
25,CATAAGAG,0.0447

row,Sequence,PBM 8-mer E-score
1,AGAAGCTC,-0.243
2,AACGGTGG,-0.0935
3,ACCGGGCA,-0.157
4,ATGCCTCG,-0.16
5,AAAGCTGC,-0.125
6,ATCTTCCC,-0.117
7,CCAAGATC,-0.146
8,GTCAATCA,-0.0887
9,AAATGTCT,0.105
10,AATGAGCC,-0.0909
11,GCCCGACA,-0.188
12,CGCGTCCG,-0.292
13,ACGATGAC,-0.0476
14,AACCGATG,-0.172
15,ATACCGAC,0.0818
16,CCAACTGG,-0.132
17,ATTAACTA,0.339
18,ACTCGTAC,-0.064
19,GGCTAACA,0.0276
20,GCTGAGTA,-0.028
21,ATATACCA,0.34
22,ATTAATGG,0.262
23,GGATCATA,0.0137
24,TAGGTGGA,0.00141
25,CCATATAG,0.084

row,Sequence,PBM 8-mer E-score
1,CGACCAAA,0.0243
2,CGTATGGA,0.00978
3,AACTAGTT,0.392
4,GTTCTCCA,-0.0822
5,AAATATAC,0.333
6,AGTGGCTG,-0.0193
7,AGGCCTGA,-0.256
8,CACACTTA,0.174
9,GAGGAGTA,-0.153
10,GCAACGTA,0.119
11,AGCACTAT,0.195
12,ATCGAATG,-0.0513
13,CTATGTAA,0.17
14,CGATCCAA,-0.201
15,AATAACGC,0.238
16,ACAACATC,0.251
17,TATATTGA,0.387
18,ATCCGATC,-0.145
19,GCTTATCA,0.0172
20,CTAAAAGA,0.105
21,CCTAAGTA,0.0665
22,AACGGCCT,-0.23
23,AGTTAGAA,0.168
24,CCGGTGTA,-0.151
25,AGTCTATC,-0.107

row,Sequence,PBM 8-mer E-score
1,CCCTTAAG,-0.0427
2,GGTGAACC,-0.0492
3,CTCGTGGC,-0.225
4,CCCCGATA,-0.142
5,GCGTAGAA,-0.0825
6,CACGACCC,-0.166
7,CGTCTATA,0.162
8,ACAGTAGT,0.134
9,AACCTAGT,0.117
10,ATTTTTAC,0.262
11,ACTGTGTG,0.0336
12,ATGTTGTA,0.253
13,AGCTGCTG,-0.146
14,CTTTCCCC,-0.114
15,ACTGAAAC,-0.034
16,ACACAAAA,0.149
17,CCGTCAGA,-0.255
18,CCGCCGGC,-0.321
19,AGTCTGAT,0.0745
20,CGAGGACA,-0.0785
21,GAGACACC,-0.155
22,GCCGATGA,-0.199
23,GGCTTCAC,-0.256
24,ATGCCCAA,0.0106
25,ACGCGATC,-0.12

row,Sequence,PBM 8-mer E-score
1,CATATAGA,0.187
2,ATCTGGTG,-0.0882
3,CTTCTCGA,-0.0897
4,CTAAACGA,-0.0092
5,AACGCCGG,-0.176
6,AAGTGTGT,0.173
7,GGAAAGGA,-0.043
8,GACCTAAC,-0.022
9,CCACAGAC,-0.0737
10,GGACTCAC,-0.234
11,ACCGGTGG,-0.137
12,CGACCCCC,-0.325
13,GAGGTCAC,-0.295
14,ACCTTAAG,0.0216
15,CCCCGAAA,-0.205
16,AATCGTCG,0.0139
17,ACGAAAGC,-0.194
18,ATGAACCG,-0.0766
19,TAATCACA,0.239
20,AATGCGCG,-0.0887
21,GTGGTAGA,0.00466
22,CTCGCGCA,-0.163
23,ACACGCCT,-0.0821
24,ATCTGCTA,0.109
25,ATACCCAA,0.145

row,Sequence,PBM 8-mer E-score
1,AATGGCAC,0.0315
2,GTCCCCAA,-0.101
3,GCAGGTAA,0.00718
4,ACGTTGAC,-0.137
5,CAAGGCGG,-0.246
6,AGAAGCTA,-0.112
7,GCTGATAC,-0.0304
8,CCCCAGGA,-0.228
9,CCGTCGAC,-0.199
10,AATGACCG,-0.00123
11,ATGTACGC,0.0162
12,GCCCGCAC,-0.192
13,ACGATATG,0.0174
14,ACATTTAA,0.388
15,CTCTTAAC,0.159
16,ACGAGAAC,-0.0886
17,GCACGGTA,0.156
18,CTGACTCC,-0.172
19,TGTATAAA,0.258
20,AAACCCTC,-0.195
21,ACAGAACC,-0.182
22,TATCAAGA,0.117
